The record followed here is paper PMC9911399, “Two distinct binding modes provide the RNA-binding protein RbFox with extraordinary sequence specificity”.

Positions count from the first letter of the chain named. This is one part of the list.

The chains are these.
T1: RBFOX1 RRM RbFoxmut (Fox-RRM*) (Homo sapiens, UniProt Q9NWB1 109-208, R118D;E147R;N151S;E152T)
T1 sequence: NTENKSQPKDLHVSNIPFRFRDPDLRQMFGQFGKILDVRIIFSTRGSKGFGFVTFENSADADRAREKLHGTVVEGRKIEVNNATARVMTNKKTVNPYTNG

B1: GUCGAAA (DNA:RNA)
RNA: GGGAGACCGGAAUUCAGAUUGUCCGUCGAAAUUAAAUCCCGUCGUAGCCACCA
DNA 1: CAATCTGAATTCCGGTCTCCC
DNA 2: TGGTGGCTACGACGGGATT
B2: UGGCUCA (DNA:RNA)
RNA: B1 RNA with G25U, U26G, C27G, G28C, A29U, A30C
DNA 1: CAATCTGAATTCCGGTCTCCC
DNA 2: TGGTGGCTACGACGGGATT
B3: GUGAGCC (DNA:RNA)
RNA: B1 RNA with C27G, G28A, A29G, A30C, A31C
DNA 1: CAATCTGAATTCCGGTCTCCC
DNA 2: TGGTGGCTACGACGGGATT
B4: CUGCAAA (DNA:RNA)
RNA: B1 RNA with G25C, C27G, G28C
DNA 1: CAATCTGAATTCCGGTCTCCC
DNA 2: TGGTGGCTACGACGGGATT
B5: AACAAAA (DNA:RNA)
RNA: B1 RNA with G25A, U26A, G28A
DNA 1: CAATCTGAATTCCGGTCTCCC
DNA 2: TGGTGGCTACGACGGGATT
B6: GAUUCCG (DNA:RNA)
RNA: B1 RNA with U26A, C27U, G28U, A29C, A30C, A31G
DNA 1: CAATCTGAATTCCGGTCTCCC
DNA 2: TGGTGGCTACGACGGGATT
B7: CCCCGUU (DNA:RNA)
RNA: B1 RNA with G25C, U26C, G28C, A29G, A30U, A31U
DNA 1: CAATCTGAATTCCGGTCTCCC
DNA 2: TGGTGGCTACGACGGGATT
B8: CCACGUU (DNA:RNA)
RNA: GGGAGACCGGAAUUCAGAUUGUCCCCACGUUUUAAAUCCCGUCGUAGCCACCA
DNA 1: CAATCTGAATTCCGGTCTCCC
DNA 2: TGGTGGCTACGACGGGATT
B9: GAGCUUU (DNA:RNA)
RNA: B8 RNA with C25G, C26A, A27G, G29U
DNA 1: CAATCTGAATTCCGGTCTCCC
DNA 2: TGGTGGCTACGACGGGATT
B10: CUGGCUA (DNA:RNA)
RNA: B1 RNA with G25C, C27G, A29C, A30U
DNA 1: CAATCTGAATTCCGGTCTCCC
DNA 2: TGGTGGCTACGACGGGATT
B11: AGAACUC (DNA:RNA)
RNA: B8 RNA with C25A, C26G, C28A, G29C, U31C
DNA 1: CAATCTGAATTCCGGTCTCCC
DNA 2: TGGTGGCTACGACGGGATT
B12: AGUUUAG (DNA:RNA)
RNA: B1 RNA with G25A, U26G, C27U, G28U, A29U, A31G
DNA 1: CAATCTGAATTCCGGTCTCCC
DNA 2: TGGTGGCTACGACGGGATT
B13: AUAAGCA (DNA:RNA)
RNA: B8 RNA with C25A, C26U, C28A, U30C, U31A
DNA 1: CAATCTGAATTCCGGTCTCCC
DNA 2: TGGTGGCTACGACGGGATT
B14: CAAUAUG (DNA:RNA)
RNA: B8 RNA with C26A, C28U, G29A, U31G
DNA 1: CAATCTGAATTCCGGTCTCCC
DNA 2: TGGTGGCTACGACGGGATT
B15: UUCCUAU (DNA:RNA)
RNA: B1 RNA with G25U, G28C, A29U, A31U
DNA 1: CAATCTGAATTCCGGTCTCCC
DNA 2: TGGTGGCTACGACGGGATT
B16: GAAAGAU (DNA:RNA)
RNA: B8 RNA with C25G, C26A, C28A, U30A
DNA 1: CAATCTGAATTCCGGTCTCCC
DNA 2: TGGTGGCTACGACGGGATT
B17: AAAGUUG (DNA:RNA)
RNA: B8 RNA with C25A, C26A, C28G, G29U, U31G
DNA 1: CAATCTGAATTCCGGTCTCCC
DNA 2: TGGTGGCTACGACGGGATT
B18: CAGGGCC (DNA:RNA)
RNA: B8 RNA with C26A, A27G, C28G, U30C, U31C
DNA 1: CAATCTGAATTCCGGTCTCCC
DNA 2: TGGTGGCTACGACGGGATT
B19: AAUCCUA (DNA:RNA)
RNA: B8 RNA with C25A, C26A, A27U, G29C, U31A
DNA 1: CAATCTGAATTCCGGTCTCCC
DNA 2: TGGTGGCTACGACGGGATT
B20: CGACUCA (DNA:RNA)
RNA: B8 RNA with C26G, G29U, U30C, U31A
DNA 1: CAATCTGAATTCCGGTCTCCC
DNA 2: TGGTGGCTACGACGGGATT
B21: GGAUAAG (DNA:RNA)
RNA: B1 RNA with U26G, C27A, G28U, A31G
DNA 1: CAATCTGAATTCCGGTCTCCC
DNA 2: TGGTGGCTACGACGGGATT
B22: UCGUGAU (DNA:RNA)
RNA: B8 RNA with C25U, A27G, C28U, U30A
DNA 1: CAATCTGAATTCCGGTCTCCC
DNA 2: TGGTGGCTACGACGGGATT
B23: AAGGGGC (DNA:RNA)
RNA: B8 RNA with C25A, C26A, A27G, C28G, U30G, U31C
DNA 1: CAATCTGAATTCCGGTCTCCC
DNA 2: TGGTGGCTACGACGGGATT
B24: UUGACGC (DNA:RNA)
RNA: B1 RNA with G25U, C27G, G28A, A29C, A30G, A31C
DNA 1: CAATCTGAATTCCGGTCTCCC
DNA 2: TGGTGGCTACGACGGGATT
B25: AUACACG (DNA:RNA)
RNA: B8 RNA with C25A, C26U, G29A, U30C, U31G
DNA 1: CAATCTGAATTCCGGTCTCCC
DNA 2: TGGTGGCTACGACGGGATT
B26: CAAUUUG (DNA:RNA)
RNA: B8 RNA with C26A, C28U, G29U, U31G
DNA 1: CAATCTGAATTCCGGTCTCCC
DNA 2: TGGTGGCTACGACGGGATT
B27: GUUUUGU (DNA:RNA)
RNA: B1 RNA with C27U, G28U, A29U, A30G, A31U
DNA 1: CAATCTGAATTCCGGTCTCCC
DNA 2: TGGTGGCTACGACGGGATT
B28: CCGCAUC (DNA:RNA)
RNA: B8 RNA with A27G, G29A, U31C
DNA 1: CAATCTGAATTCCGGTCTCCC
DNA 2: TGGTGGCTACGACGGGATT
B29: AUGUCGC (DNA:RNA)
RNA: B1 RNA with G25A, C27G, G28U, A29C, A30G, A31C
DNA 1: CAATCTGAATTCCGGTCTCCC
DNA 2: TGGTGGCTACGACGGGATT
B30: GUAAGGC (DNA:RNA)
RNA: B8 RNA with C25G, C26U, C28A, U30G, U31C
DNA 1: CAATCTGAATTCCGGTCTCCC
DNA 2: TGGTGGCTACGACGGGATT
B31: AAGAGUU (DNA:RNA)
RNA: B8 RNA with C25A, C26A, A27G, C28A
DNA 1: CAATCTGAATTCCGGTCTCCC
DNA 2: TGGTGGCTACGACGGGATT

In this assay the target is T1, RBFOX1 RRM RbFoxmut (Fox-RRM*). Description: EMSA; HiTS-Eq, 1 nM pool, 10 min; buffer printed only for the single-RNA assays: 10 mM Tris pH 7.5, 150 mM NaCl, 3.4 mM EDTA, 0.001% NP-40, 30 C. The conditions noted are these: tags: His6 N-terminal (pET28a); label: 5' 32P. A digest of the protocol: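 Purified RbFox RRM (wild type or mutant) was equilibrated for 10 min in 50 µL with 1 nM of a 5′-radiolabelled pool of RNA with 7 randomized nucleotides, its flanks annealed to DNA oligonucleotides, across increasing protein concentrations. Free RNA was separated by 8% native PAGE, excised, reverse-transcribed, PCR-barcoded and sequenced on an Illumina HiSeq 2500. Relative association constants came from read-count changes of each variant against the control reaction, normalised to the cognate motif.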
As for B1, the binding signal is 0.0811 KA relative to UGCAUGU. For the molecule B2, the binding signal was 0.129 KA relative to UGCAUGU. For the molecule B3, the binding signal is 0.186 KA relative to UGCAUGU. Take B4: the binding signal is 0.0786 KA relative to UGCAUGU. B5: the binding signal is 0.0739 KA relative to UGCAUGU. B6: the binding signal was 0.0895 KA relative to UGCAUGU.

For B7, the binding signal is 0.0828 KA relative to UGCAUGU. Regarding B8, the binding signal was 0.0948 KA relative to UGCAUGU. In the case of B9, the binding signal was 0.0736 KA relative to UGCAUGU. Take B10: the binding signal was 0.0967 KA relative to UGCAUGU. To B11 belongs 0.0766 KA relative to UGCAUGU.

B12: the binding signal is 0.119 KA relative to UGCAUGU. To B13 belongs 0.139 KA relative to UGCAUGU; to B14, 0.1 KA relative to UGCAUGU. Consider B15, for which the binding signal was 0.0853 KA relative to UGCAUGU. As for B16, the binding signal is 0.0931 KA relative to UGCAUGU.

For B17, the binding signal is 0.113 KA relative to UGCAUGU. To B18 belongs 0.177 KA relative to UGCAUGU. In the case of B19, the binding signal was 0.0671 KA relative to UGCAUGU. For the molecule B20, the binding signal is 0.0921 KA relative to UGCAUGU. For the molecule B21, the binding signal is 0.0989 KA relative to UGCAUGU. Regarding B22, the binding signal was 0.086 KA relative to UGCAUGU.

As for B23, the binding signal was 0.094 KA relative to UGCAUGU. Take B24: the binding signal is 0.0672 KA relative to UGCAUGU.

As to B25, the binding signal was 0.0989 KA relative to UGCAUGU.

For the molecule B26, the binding signal is 0.0578 KA relative to UGCAUGU. Turning to B27, the binding signal is 0.161 KA relative to UGCAUGU. In the case of B28, the binding signal was 0.258 KA relative to UGCAUGU. Regarding B29, the binding signal is 0.0947 KA relative to UGCAUGU. On to B30, for which the binding signal was 0.0558 KA relative to UGCAUGU. B31: the binding signal was 0.0992 KA relative to UGCAUGU.
